The source of these data is the supplement of paper PMC4604168 (melanoma cell lines).

This is one part of the list. Repeats are few or missing, and single values can be far off.
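Note: cells treated in 1,536-well plates, then fixed and DAPI-stained, with nuclei counted from automated high-throughput microscope images.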

For the assay, the system named is SkMel30. Put plainly: cell count relative to DMSO control; melanoma cells; higher = more viable cells. Particulars: library dose: standard library concentration; 72 h.
As to `CC[C@]1(O)C[C@H]2CN(CCc3c([nH]c4ccccc34)[C@@](C(=O)OC)(c3cc4c(cc3OC)N(C=O)[C@H]3[C@@](O)(C(=O)OC)[C@H](OC(C)=O)[C@]5(CC)C=CCN6CC[C@]43[C@@H]65)C2)C1` [vincristine] + NCC(=O)Nc1ccc(-n2nc(C(F)(F)F)cc2-c2ccc3c(ccc4ccccc43)c2)cc1 [OSU03012] (first compound 0.0005 µM, partner dose 5 µM), the cell count turned out to be 29.7%.

Turning to `N#CC[C@H](C1CCCC1)n1cc(-c2ncnc3[nH]ccc23)cn1` [ruxolitinib] + Cc1nc(Nc2ncc(C(=O)Nc3c(C)cccc3Cl)s2)cc(N2CCN(CCO)CC2)n1 [dasatanib] (first compound 5 µM, partner dose 0.02 µM), the cell count is 105%. The result for `CC[C@]1(O)C[C@H]2CN(CCc3c([nH]c4ccccc34)[C@@](C(=O)OC)(c3cc4c(cc3OC)N(C=O)[C@H]3[C@@](O)(C(=O)OC)[C@H](OC(C)=O)[C@]5(CC)C=CCN6CC[C@]43[C@@H]65)C2)C1` [vincristine] + O=C(O)c1ccc(-c2c[nH]c3ncc(-c4ccccc4)cc23)cc1C1CCCC1 [GSK650394] (first compound 0.0005 µM, partner dose 0.8 µM) reads 75.7%.
